Laboratory results: patent US8592383B2, “Cycloalkyl-fused tetrahydroquinolines as CRTH2 receptor modulators” (Merck Sharp & Dohme Corp., priority 2011, dated 2013)

biological target: T1, hCRTH2 (Homo sapiens, UniProt Q9Y5Y4); test: biochemical; details: Ki (nM), Table A; Radioligand Binding Assay A, [3H]PGD2, HEK-hCRTH2 membranes
T1 sequence (Q9Y5Y4 1-395): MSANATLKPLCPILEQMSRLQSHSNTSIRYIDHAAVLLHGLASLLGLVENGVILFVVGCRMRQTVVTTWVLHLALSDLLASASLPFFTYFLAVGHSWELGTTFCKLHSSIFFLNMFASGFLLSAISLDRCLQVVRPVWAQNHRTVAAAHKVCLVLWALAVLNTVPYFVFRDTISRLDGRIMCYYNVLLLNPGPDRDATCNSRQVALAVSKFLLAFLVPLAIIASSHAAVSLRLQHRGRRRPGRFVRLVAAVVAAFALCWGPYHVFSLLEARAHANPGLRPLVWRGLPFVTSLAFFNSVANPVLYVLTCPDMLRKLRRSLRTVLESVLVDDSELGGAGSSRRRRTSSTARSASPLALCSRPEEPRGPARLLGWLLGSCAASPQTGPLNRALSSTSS

| Structure (SMILES) | Ki |
| --- | --- |
| O=C(O)CCC(=O)N(C1CC1)C1c2ccccc2N(C(=O)c2ccc(SC(F)(F)F)cc2)C2CCC21 (single isomer, unassigned) [compound 159, 4-(cyclopropyl(cis, cis-3-(4-((trifluoromethyl)thio)benzoyl)-1,2,2a,3,8,8a-hexahydrocyclobuta[b]quinolin-8-yl)amino)-4-oxobutanoic acid] | 1 to 5 nM |
| O=C(O)CCCN(C1CC1)[C@@H]1c2cc(Cl)ccc2N(C(=O)OCc2ccccc2)[C@@H]2CC[C@@H]21 (single isomer, unassigned) [compound 108, 4-((cis, cis-3-(benzyloxycarbonyl)-6-chloro-1,2,2a,3,8,8a-hexahydrocyclobuta[b]quinolin-8-yl)(cyclopropyl)amino) butanoic acid] | 5.1 to 20 nM |
| COc1nc(-c2cccc(C(=O)N3c4ccccc4C(N(C(=O)CCC(=O)O)C4CC4)C4CCCC43)c2)cs1 (racemic) [18J, 4-[cyclopropyl[cis,cis-2,3,3a,4,9,9a-hexahydro-4-[3-(2-methoxy-4-thiazolyl)benzoyl]-1H-cyclopenta[b]quinolin-9-yl]amino]-4-oxobutanoic acid] | 5.1 to 20 nM |
| O=C(O)CCCN(C1CC1)[C@H]1c2cc(F)ccc2N(C(=O)c2ccc(OC(F)(F)F)cc2)[C@H]2CCC[C@H]21 (single isomer, unassigned) [compound 170] | 1 to 5 nM |
| O=C(O)COC(=O)N(C1CC1)C1c2ccccc2N(C(=O)c2ccc(F)c(F)c2)C2CCC21 (single isomer, unassigned) [32K] | 1 to 5 nM |
| Cc1ccc(C(=O)N(CCCC(=O)O)C2c3ccccc3N(C(=O)c3ccc(OC(F)(F)F)cc3)C3CCCC23)cc1 (racemic) [47F, 4-[[cis,cis-2,3,3a,4,9,9a-hexahydro-4-[4-(trifluoromethoxy)benzoyl]-1H-cyclopenta[b]quinolin-9-yl](4-methylbenzoyl)amino]butanoic acid] | 201 to 7500 nM |
| O=C(O)CCC(=O)N(C1CC1)C1c2ccc(Cl)cc2N(C(=O)c2cc(F)cc(F)c2)C2CCC21 (single isomer, unassigned) [27J, 4-[[cis, cis-5-chloro-3-(3,5-difluorobenzoyl)-1,2,2a,3,8,8a-hexahydrocyclobuta[b]quinolin-8-yl]cyclopropylamino]-4-oxobutanoic acid] | 201 to 7500 nM |
| O=C(O)CCC(=O)N(C1CC1)C1c2ccccc2N(C(=O)c2ccc(C(F)(F)F)nc2)C2CCCC21 (single isomer, unassigned) [compound 163, 4-(cyclopropyl(cis, cis-4-(6-(trifluoromethyl)nicotinoyl)-2,3,3a,4,9,9a-hexahydro-1H-cyclopenta[b]quinolin-9-yl)amino)-4-oxobutanoic acid] | 20.1 to 200 nM |
| O=C(O)CCC(=O)N(C1CC1)C1c2cc(Br)ccc2N(C(=O)c2ccc(OC(F)(F)F)cc2)C2CCCC21 (single isomer, unassigned) [49B, 4-[[cis, cis-7-bromo-2,3,3a,4,9,9a-hexahydro-4-[4-(trifluoromethoxy)benzoyl]-1H-cyclopenta[b]quinolin-9-yl]cyclopropylamino]-4-oxobutanoic acid] | 5.1 to 20 nM |
| O=C(O)COC(=O)N(C1CC1)C1c2ccccc2N(C(=O)c2cccc(F)c2)C2CCCC21 (single isomer, unassigned) [32S, [[[cyclopropyl[cis, cis-4-(3-fluorobenzoyl)-2,3,3a,4,9,9a-hexahydro-1H-cyclopenta[b]quinolin-9-yl]amino]carbonyl]oxy]acetic acid] | 1 to 5 nM |
| CN(C(=O)CCC(=O)O)C1c2ccccc2N(C(=O)c2ccc(-c3ccccc3)cc2)C2CCCC12 (racemic) [17W] | 5.1 to 20 nM |
| CCN(C(=O)CCC(=O)O)C1c2ccccc2N(C(=O)c2ccc(F)c(F)c2)C2CCCC12 (single isomer, unassigned) [compound 62] | 5.1 to 20 nM |
| CN(CC(=O)O)C(=O)N(C1CC1)[C@@H]1c2ccccc2N(C(=O)c2ccc(OC(F)(F)F)cc2)[C@@H]2CCC[C@@H]21 (relative stereo) [compound 35, N-[[Cyclopropyl[cis,cis-2,3,3a,4,9,9a-hexahydro-4-[4-(trifluoromethoxy)benzoyl]-1H-cyclopenta[b]quinolin-9-yl]amino]carbonyl]-N-methylglycine] | 5.1 to 20 nM |
| CCN(C(=O)CCC(=O)O)[C@H]1c2cc(F)ccc2N(C(=O)c2ccc(SC(F)(F)F)cc2)[C@H]2CCC[C@@H]12 (single isomer, unassigned) [compound 165] | 1 to 5 nM |
| O=C(O)CCC(=O)N(C1CC1)C1c2ccc(F)cc2N(C(=O)OCc2ccccc2)C2CCCC21 (single isomer, unassigned) [compound 150, 4-(phenylmethyl) cis, cis-[(3-carboxy-1-oxopropyl)cyclopropylamino]-6-fluoro-1,2,3,3a,9,9a-hexahydro-4H-cyclopenta[b]quinoline-4-carboxylate] | 1 to 5 nM |
| CCN(C(=O)CCC(=O)O)C1c2ccccc2N(C(=O)OCc2ccc(F)c(F)c2)C2CCCC12 (single isomer, unassigned) [compound 72, 4-[(3,4-difluorophenyl)methyl] cis, cis-[(3-carboxy-1-oxopropyl)ethylamino]-1,2,3,3a,9,9a-hexahydro-4H-cyclopenta[b]quinoline-4-carboxylate] | 5.1 to 20 nM |
| O=C(CCC(=O)N(C1CC1)[C@H]1c2cc(F)ccc2N(C(=O)c2ccc(OC(F)(F)F)cc2)[C@H]2CCC[C@H]21)NS(=O)(=O)C1CC1 (single isomer, unassigned) [11A] | 20.1 to 200 nM |
| O=C(O)CCCN(Cc1ccccc1)C1c2ccccc2N(C(=O)c2ccc(OC(F)(F)F)cc2)C2CCCC12 (racemic) [44E, 4-[[cis,cis-2,3,3a,4,9,9a-hexahydro-4-[4-(trifluoromethoxy)benzoyl]-1H-cyclopenta[b]quinolin-9-yl](phenylmethyl)amino] butanoic acid] | 5.1 to 20 nM |
| O=C(O)CCCN(CCc1ccccc1)C1c2ccccc2N(C(=O)c2ccc(OC(F)(F)F)cc2)C2CCCC12 (racemic) [compound 126, 4-[[cis,cis-2,3,3a,4,9,9a-hexahydro-4-[4-(trifluoromethoxy)benzoyl]-1H-cyclopenta[b]quinolin-9-yl](2-phenylethyl)amino]butanoic acid] | 5.1 to 20 nM |
| C[C@H](OC(=O)N1c2cc(Cl)c(F)cc2C(N(C(=O)CCC(=O)O)C2CC2)C2CCCC21)c1ccc(F)cc1 (stereo partly drawn) [22i, 4-[1(S)-(4-fluorophenyl)ethyl] cis, cis-[(3-carboxy-1-oxopropyl)cyclopropylamino]-6-chloro-7-fluoro-1,2,3,3a,9,9a-hexahydro-4H-cyclopenta[b]quinoline-4-carboxylate] | 1 to 5 nM |
| O=C(O)CCC(=O)N(C1CC1)C1c2ccc(Cl)cc2N(C(=O)c2cccc(OC(F)(F)F)c2)C2CCC21 (single isomer, unassigned) [27L, 4-[[cis, cis-5-chloro-1,2,2a,3,8,8a-hexahydro-3-[3-(trifluoromethoxy)benzoyl]cyclobuta[b]quinolin-8-yl]cyclopropylamino]-4-oxobutanoic acid] | 1 to 5 nM |
| O=C(O)CCNC(=O)N(C1CC1)C1c2ccccc2N(C(=O)c2ccc(OC(F)(F)F)cc2)C2CCCC21 (racemic) [35G, N-[[cyclopropyl[cis,cis-2,3,3a,4,9,9a-hexahydro-4-[4-(trifluoromethoxy)benzoyl]-1H-cyclopenta[b]quinolin-9-yl]amino]carbonyl]-beta-alanine] | 201 to 7500 nM |
